Experimental data taken from PubChem BioAssay AID624417 (National Center for Advancing Translational Sciences (NCATS), 2012).
The campaign covered roughly 410,000 compounds. About 6,400 (1.6%) were called active. The shares of active, inactive and inconclusive entries below differ from those in the screen. Calls follow the shape of the dose curve; as a rule, active = well fitted inhibition curve with a large enough effect; inconclusive = small, poorly fitted or top-dose-only effect; inactive = no such curve, though single readings can be large or run the other way. Potencies of inconclusive entries are left out as doubtful fits.

Molecular target: Glucagon-like peptide 1 receptor (Homo sapiens) (UniProt P43220)
Assay: qHTS of GLP-1 Receptor Inverse Agonists (Inhibition Mode); also: nearly all actives have a fitted effect of over 55% in size
Details: HEK293 GLP-1R CRE-luciferase, luminescence, 24 h, GLP-1R form is constitutively active; series mostly up to 38.3 µM
Method in brief: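 Readout was luciferase luminescence, measured 12 min after detection reagent at room temperature. Beforehand, GLP-1R reporter HEK293 cells had sat 12 h, then received compounds for 24 hr at 37 deg C.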
Potency is read from the fitted curve at half-maximal effect; tags tell the direction and shape of the fitted curve.

Sequence of UniProt P43220 (P43220 whole entry, looked up): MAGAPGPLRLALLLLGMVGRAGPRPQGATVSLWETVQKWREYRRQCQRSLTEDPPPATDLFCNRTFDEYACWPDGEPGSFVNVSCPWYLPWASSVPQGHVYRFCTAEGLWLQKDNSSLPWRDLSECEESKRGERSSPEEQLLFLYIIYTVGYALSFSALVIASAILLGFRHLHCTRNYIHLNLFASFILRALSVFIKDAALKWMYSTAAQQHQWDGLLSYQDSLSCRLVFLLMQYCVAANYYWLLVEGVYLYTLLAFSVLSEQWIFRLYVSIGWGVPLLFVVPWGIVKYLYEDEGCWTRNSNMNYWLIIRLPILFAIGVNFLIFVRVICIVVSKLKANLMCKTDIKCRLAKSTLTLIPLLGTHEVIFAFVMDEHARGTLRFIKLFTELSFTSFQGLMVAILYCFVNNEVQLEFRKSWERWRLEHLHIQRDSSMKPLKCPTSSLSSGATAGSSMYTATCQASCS

| SMILES | Potency |
| --- | --- |
| Cc1cc(N2C(=O)C(O)=C(C(=O)c3cc4ccccc4o3)C2c2ccc(Cl)cc2)no1 (stereo unspecified) | inconclusive [inhibitor, partial curve, poor fit] |
| O=C(Nc1ccc(-c2nc3ccccc3[nH]2)cc1)c1ccccc1NS(=O)(=O)c1ccc(F)cc1 | inconclusive [inhibitor, single point] |
| O=C1NN(c2ccc(F)c(Cl)c2)C(=O)/C1=C\c1cccc(OC(=O)c2cccs2)c1 | inconclusive [inhibitor, partial curve, poor fit] |
| O=C(O)COc1ccccc1/C=N/NC(=O)CSc1nnc(SCc2cccc3ccccc23)s1 | inconclusive [inhibitor, full curve, poor fit] |
| O=C(NN1C(=O)/C(=C/c2ccc(O)cc2)SC1=S)c1ccccc1O | inconclusive [inhibitor, single point] |
| COc1cccc(C2C3=C(N=c4s/c(=C\c5ccc(OCC(=O)O)cc5)c(=O)n42)c2ccccc2CC3)c1 (stereo unspecified) | inconclusive [inhibitor, single point] |
